The other results are listed elsewhere or left out.

The subject of the assay is T1, C. trachomatis L2/434/Bu expressing GFP (CTL2-GFP).
T1 construct: L2/434/Bu GFP intracellular growth in HeLa cells
Details: species or system HeLa; C. trachomatis total inclusion area by high-content imaging, normalised to DMSO. The settings on record: total inclusion area; 28.5 h, 10 µM; inhibitor. In short, it runs like this:
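Host cell viability was gauged from Hoechst-stained nuclei counts, while chlamydial growth was taken from total inclusion area and inclusion number per well. Cells were fixed and imaged by high-content microscopy once bulk GFP and resorufin fluorescence had been measured.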
For `Cc1nc2ccccc2c(C(=O)O)c1-c1ccccc1` [CBK274187], the “% of control remaining” value is listed as 95.2421.
For the compound `COc1ccc(-c2cn[nH]c2-c2ccc(OCCN3CCOCC3)cc2O)cc1` [CBK288112], the “% of control remaining” value turned out to be 105.057.
With `CCc1nn(CC(=O)N(CC)CC)c(=O)c2cc3sccc3n12` [CBK284054] the figure was 87.1827.
The result for `FC(F)(F)c1cccc(SCc2ccc(Cl)cc2)n1` [CBK107197] reads 77.8302; that for `COCCNc1cc(-c2cccc(F)c2C(N)=O)c2cc[nH]c2n1` [CBK307682], 71.9132.
The result for `CN(C)C(=O)CO[C@@H]1CO[C@H]2[C@@H]1OC[C@@H]2Nc1nccc(-c2cccc(F)c2)n1` [CBK289533] reads 89.3832; that for `Oc1ccc(Oc2ccc(Oc3ccc(O)cc3)cc2)cc1` [CBK033968], 94.4372.
For the compound `CC1(C)CC(CC(=O)NN)(c2ccccc2)CCO1` (stereo not shown) [CBK261358C], the “% of control remaining” value was 97.6291.
With `Cc1ccc(S(=O)(=O)NCC(=O)Nc2cnc(-c3cccc(C)c3)c(-c3ccc(N)cc3)n2)cc1` [CBK037600] the figure was 105.877; with `O=C(CCc1ccc(S(=O)(=O)NC2CC2)cc1)N1CCCC1c1ccncc1` (stereo not shown) [CBK296673], 101.694.
In the case of `CCCCc1c(O)nc(SCC(=O)NCC2CCCO2)[nH]c1=O` (stereo not shown) [CBK073281], the “% of control remaining” value worked out at 88.4276.
The result for `COc1ccc(C(=O)Nc2noc3nc(C)ccc23)cc1OC` [CBK287832] reads 96.9461; that for `CCCCNc1cc(N2CCOC(c3cnn(CC)c3)C2)nc(N)n1` (stereo not shown) [CBK305423], 110.004; that for `NC(=O)N/N=C/COc1cccc(C(F)(F)F)c1` [CBK022736], 66.9072.
With `CCNC(=O)C1(Cc2ccccc2-c2cccnc2)CCOCC1` [CBK285218] the figure was 79.8475; with `OCc1ccc(-c2nccnc2NCC2CC2)cc1` [CBK037334], 121.563; with `Nc1ncc(-c2cncnc2)nc1NCc1ccccc1` [CBK063584], 92.7609.
Regarding `COCCNC(=O)Nc1ccc2nc(-c3ccccn3)c(-c3ccccn3)nc2c1` [CBK265151], the “% of control remaining” value worked out at 100.212.
With `CN1CCN(C)C(COc2ncccc2C(F)(F)F)C1` (stereo not shown) [CBK113458] the figure was 102.891.
The result for `Cc1ccc(OCCn2c(SCCC(=O)O)nc3ccccc32)cc1` [CBK262561] reads 109.733.
As to `Nc1nc(OCc2ccncc2)cnc1-c1ccc(OC(F)(F)F)cc1` [CBK145121], the “% of control remaining” value is 95.9721.
As to `O=C(NCCCn1cccn1)N1CCCN(Cc2ccc(Cl)cc2)CC1` [CBK305447], the “% of control remaining” value worked out at 58.5869.
Consider `COc1cccc(CC(=O)Nc2nc(Cc3n[nH]c(=S)n3C)cs2)c1` [CBK296634], for which the “% of control remaining” value is on record as 86.2035.
Take `CC(=O)Nc1ccc(-c2ccc(C(=O)NCCc3ccc(O)cc3)cn2)cc1` [CBK158840]: the “% of control remaining” value is 89.6386.
For `CCOc1ccccc1Cn1c2ccccc2c2nc3ccccc3nc21` [CBK266323], the “% of control remaining” value is recorded as 105.905.
With `Cc1ccc(CNC(Cc2c[nH]c3ccccc23)C(=O)O)cc1` (stereo not shown) [CBK287145] the figure was 108.809.
With `Cc1c(C(=O)N2CC(n3cc(C(C)O)nn3)C2)sc2ccc(F)cc12` (stereo not shown) [CBK305446] the figure was 69.2695; with `N#CCCNS(=O)(=O)c1ccc(OC(F)(F)F)cc1` [CBK043560], 93.2729; with `Cc1cc(C(=O)N2CCC(Oc3nccn(Cc4ccc(S(C)(=O)=O)cc4)c3=O)CC2)ccc1Cl` [CBK161883], 41.4232.
With `O=C(Cc1c[nH]cn1)N1CCC2(CCN(Cc3ccccc3)C2)C1` (stereo not shown) [CBK137147] the figure was 125.707; with `O=CN1CCc2c([nH]c3ccc(F)cc23)C12CCN(Cc1cccc(Oc3ccc(F)cc3)c1)CC2` [CBK040388], 103.338; with `Cc1ncsc1C(=O)N1CCCCC1c1nc2ccccc2[nH]1` (stereo not shown) [CBK283531], 80.9995.
With `CCCC/C=C/c1cnc(N)c(-c2ccc(CCC(=O)O)cc2)n1` [CBK064127], the “% of control remaining” value worked out at 132.534.
The result for `COc1ccc(OC(=O)c2cccc(F)c2)c(C(C)=O)c1` [CBK088044] reads 95.6406; that for `CS(=O)(=O)N1CCC(C(=O)NC(c2ccccc2)c2cnccn2)CC1` (stereo not shown) [CBK059901], 99.3068.
On to `CC(=O)Nc1cccc(-c2ccc(Nc3cccnc3)nc2)c1` [CBK037703], for which the “% of control remaining” value was 135.062.
The result for `CS(=O)(=O)N1CC2(CCN(CCc3ccc(F)cc3)CC2)c2ccccc21` [CBK084103] reads 97.2991; that for `O=C(c1ccc(-c2ccoc2)nc1)N1CCCC1` [CBK156284], 101.473.
With `Cc1ccc2nc(-c3ccncc3)cc(C(=O)Nc3ccc(C(F)(F)F)cc3)c2c1` [CBK267732] the figure was 91.9854.
With `O=c1c2c3c(sc2nc(SCc2nc4ccccc4[nH]2)n1Cc1ccco1)CCC3` [CBK268306] the figure was 87.4197.

These data come from paper PMC12040169 (PLOS Biology, 2025).
